The whole screen tested about 270,000 compounds, of which about 5,800 (2.1%) were called active. The shares of active, inactive and inconclusive entries below differ from those in the screen. The call rests on the fitted dose curve; in most records, active means well fitted inhibition curve with a large enough effect; inconclusive means small, poorly fitted or top-dose-only effect; inactive means flat fitted curve, though single readings scatter. A potency beside an inconclusive call is a rough fit, not a confirmed value.
Biological target: Microtubule-associated protein tau (Homo sapiens) (UniProt P10636)
Test: qHTS for Inhibitors of Tau Fibril Formation, Thioflavin T Binding; further: nearly all actives have a fitted effect of over 55% in size
Details: recombinant tau K18 P301L (four-repeat tau fragment), heparin-induced fibrillization, ThT fluorescence; series mostly up to 57.4 µM
How it was run: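 Tau K18 P301L fragment (15 uM unlabeled plus 0.24 uM Alexa 594-labeled) in 100 mM sodium acetate pH 7 with compound, fibrillization induced by 20 uM heparin for 6 hr at 37 C. Thioflavin T (30 uM) added, fluorescence read after 1 hr (ex 450, em 510 nm).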
Potency means the concentration at half of the fitted maximal effect; tags describe the fitted curve by direction and shape.

Chain of UniProt P10636 (P10636 whole entry, looked up): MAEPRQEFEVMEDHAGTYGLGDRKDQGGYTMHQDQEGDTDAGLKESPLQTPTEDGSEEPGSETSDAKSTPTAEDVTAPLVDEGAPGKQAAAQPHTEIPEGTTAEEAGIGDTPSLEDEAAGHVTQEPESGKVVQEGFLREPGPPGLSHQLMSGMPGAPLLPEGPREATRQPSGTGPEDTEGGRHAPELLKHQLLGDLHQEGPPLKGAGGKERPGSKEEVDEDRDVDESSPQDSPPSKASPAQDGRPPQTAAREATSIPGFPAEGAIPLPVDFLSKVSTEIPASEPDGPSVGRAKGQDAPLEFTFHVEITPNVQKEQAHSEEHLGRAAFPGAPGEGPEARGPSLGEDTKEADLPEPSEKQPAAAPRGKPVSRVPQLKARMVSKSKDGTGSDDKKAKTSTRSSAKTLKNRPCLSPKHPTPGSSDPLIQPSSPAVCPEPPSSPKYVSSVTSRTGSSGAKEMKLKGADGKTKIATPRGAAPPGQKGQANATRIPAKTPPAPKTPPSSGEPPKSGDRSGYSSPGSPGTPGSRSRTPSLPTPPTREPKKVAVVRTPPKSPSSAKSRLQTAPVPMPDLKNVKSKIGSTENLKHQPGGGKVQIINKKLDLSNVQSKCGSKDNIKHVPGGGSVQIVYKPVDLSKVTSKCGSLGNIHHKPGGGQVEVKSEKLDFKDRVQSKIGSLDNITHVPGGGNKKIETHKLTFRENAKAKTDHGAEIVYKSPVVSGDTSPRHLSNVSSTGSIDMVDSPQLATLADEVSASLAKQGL

Row | Compound | Potency
1 | c1ccc(N2CCOCC2)c(Nc2nc3ccccc3n3cnnc23)c1 | inconclusive: 28.2 µM [inhibitor, single point]
2 | Cc1ccc(NC(=S)NNC(=O)c2nn(C)cc2Cl)cc1 | inactive
3 | CC(=O)Nc1ccc(S(=O)(=O)/N=C2\SCCN2S(=O)(=O)c2ccc(NC(C)=O)cc2)cc1 | inconclusive: 15.8 µM [inhibitor, partial curve, poor fit]
4 | c1ccc(CNc2ccnc(-c3ccoc3)n2)cc1 | inconclusive: 14.1 µM [inhibitor, partial curve]
5 | CC(=O)/C(=C/c1ccc(N(C)C)cc1)C(=O)c1ccccc1 | active: 17.8 µM
6 | N#Cc1cccc(-n2nnnc2-c2ccccn2)c1 | active: 6.31 µM
7 | O=C(NCCN1CCc2ccccc2C1)C1CCN(S(=O)(=O)N2CCC3(CC2)OCCO3)CC1 | inactive
8 | COc1ccc(C(=O)NCc2cn3ccc(C)cc3n2)cc1 | inactive
9 | Cc1ccc(C(=O)NNC(=O)c2cc(OCC(F)(F)F)ccc2OCC(F)(F)F)cc1 | inactive
10 | CCOc1ccc2nc(NC(=O)C3=NNC(=O)CC3)sc2c1 | inconclusive: 2 µM [inhibitor, full curve]
11 | O=[N+]([O-])c1ccc(N/N=C\c2cccnc2)nc1 | inconclusive: 17.8 µM [inhibitor, partial curve]
12 | Cn1c(=O)sc2cc(NS(=O)(=O)c3ccc(C(C)(C)C)cc3)ccc21 | inactive
13 | O=c1c2cc(-c3ccccc3)sc2nc2n1N=C(c1ccccc1)CS2 | inconclusive: 0.562 µM [inhibitor, full curve, poor fit]
14 | CCc1ccccc1Nc1sc(C(=O)c2ccccc2)c(N)c1S(=O)(=O)c1ccccc1 | inactive
15 | CCOc1ccc(-c2nc(C#N)c(NCC(C)C)o2)cc1 | inconclusive: 15.8 µM [inhibitor, partial curve]
16 | O=C(COc1ccc(Cl)cc1)OCc1cc(=O)n2nc(C3CCCCC3)sc2n1 | inconclusive: 20 µM [inhibitor, single point]
17 | Cc1ccc(OC(C)C(=O)N=Nc2c(O)[nH]c3ccc([N+](=O)[O-])cc23)cc1 (stereo not drawn) | inconclusive: 15.8 µM [inhibitor, partial curve]
18 | COc1cccc(N2CCN(CC(=O)c3c(C)[nH]c4ccccc34)CC2)c1 | inconclusive: 20 µM [inhibitor, single point]
19 | O=C(COc1ccccc1)Nc1cccc(-c2nc3cc4ccccc4cc3[nH]2)c1 | inconclusive: 39.8 µM [activator, single point]
20 | CC1CCN(C(c2ccc(N(C)C)cc2)c2nnnn2Cc2ccc(F)cc2)CC1 (stereo not drawn) | inconclusive: 31.6 µM [inhibitor, single point]
21 | COc1ccc(-c2nn(C)c3sc(C(=O)NCc4ccco4)cc23)cc1OC | inactive
22 | CN1CCN(CCC(=O)N/N=C/c2cc([N+](=O)[O-])ccc2O)CC1 | inconclusive: 22.4 µM [inhibitor, partial curve]
23 | CC1CN(CCOCCSc2ccccc2)CC(C)O1 (stereo not drawn) | inactive

Row | Compound | Potency
24 | CN(C)c1ccc(-c2noc(C3CCN(S(=O)(=O)c4cccc(Cl)c4)CC3)n2)cc1 | inconclusive: 22.4 µM [inhibitor, partial curve]
25 | COC(=O)c1ccc(CSc2nnc(SCc3ccc(C(=O)OC)o3)s2)o1 | inconclusive: 35.5 µM [inhibitor, single point]
26 | CCC(C)NC(=O)/C(=C/c1ccco1)c1ccccc1 (stereo not drawn) | inactive
27 | COCCCNC(=S)N/N=C/c1ccc(N(C)C)cc1Cl | inconclusive: 28.2 µM [inhibitor, partial curve]
28 | COc1ccc(C(=O)Nc2ccc(-c3nnn(CC(=O)N4CCN(C(=O)c5ccco5)CC4)n3)cc2)cc1 | inconclusive: 0.126 µM [inhibitor, full curve]
29 | CN(Cc1ccccc1)c1nc2c(S(=O)(=O)c3cccc(Cl)c3)nnn2c2ccsc12 | inactive
30 | COc1ccc(Nc2nc3ccccc3n3c(N)nnc23)cc1 | inconclusive: 14.1 µM [inhibitor, partial curve]
31 | CCOc1ccc(C(=O)Nc2ccc(N3CCN(S(C)(=O)=O)CC3)cc2)cc1[N+](=O)[O-] | inconclusive: 3.16 µM [inhibitor, full curve]
32 | CC(=O)n1cc([C@@H]2C=C(C(=O)Nc3ccccc3)O[C@H](OCc3ccc(CO)cc3)C2)c2ccccc21 | inconclusive: 31.6 µM [inhibitor, single point]
33 | Cc1cccc(C(=O)Nc2ccc(OCc3cc(=O)n4ccc(C)cc4n3)cc2)c1 | inconclusive: 3.55 µM [inhibitor, full curve]
34 | O=[N+]([O-])C1=CC=C2C(=NC3(CCCCC3)N2O)C1=NC1CCCCC1 | inconclusive: 10 µM [inhibitor, partial curve]
35 | O=C(Cc1ccccc1)N/N=C/c1ccc(-c2ccc([N+](=O)[O-])cc2)o1 | inconclusive: 3.55 µM [inhibitor, full curve]
36 | Cc1ccc(NC(=O)N2CC=C(c3c[nH]c4ccccc34)CC2)cc1Cl | active: 6.31 µM
37 | Cc1nn(C(=O)c2cccs2)c(N)c1-c1ccccc1 | inconclusive: 17.8 µM [inhibitor, partial curve]
38 | COC(=O)c1cc(NS(=O)(=O)c2ccc(N3CCC(C)CC3)c([N+](=O)[O-])c2)cc(C(=O)OC)c1 | inconclusive: 31.6 µM [inhibitor, single point]
39 | Nc1c(S(=O)(=O)c2cccc(Cl)c2)c2nc3ccccc3nc2n1/N=C/c1ccc(O)c(O)c1 | inconclusive: 22.4 µM [inhibitor, partial curve]
40 | CC(=O)c1ccc(NC(=O)N2CCN(c3ccc(C)cc3)C(C)C2)cc1 (stereo not drawn) | inconclusive: 31.6 µM [inhibitor, partial curve]
41 | Cn1c(=O)oc2cc(S(=O)(=O)CCC(=O)NCc3ccc(Cl)cc3)ccc21 | inconclusive: 25.1 µM [inhibitor, single point]
42 | ClC(=C\c1ccccc1)/C=N/N1CCN(c2ccccn2)CC1 | inconclusive: 0.891 µM [inhibitor, full curve]
43 | Clc1cccc(Nc2ncnc3c2nc2n3CCCCC2)c1 | inactive
44 | Oc1ccc(Br)cc1-c1nc2cnccn2c1NC1CCCCC1 | inconclusive: 39.8 µM [inhibitor, single point]
45 | O=C(N=c1ccn(-c2nc3ccccc3nc2NS(=O)(=O)c2ccccc2)cc1)c1cccs1 | inconclusive: 2 µM [inhibitor, partial curve]
46 | C=CCn1c(=NC(=O)c2cccs2)sc2cc(NC(C)=O)ccc21 | inconclusive: 14.1 µM [inhibitor, partial curve, poor fit]

Row | Compound | Potency
47 | Cc1cc(C)c2nc(N3CCCN(C(=O)c4ccco4)CC3)c(C#N)cc2c1 | inconclusive: 28.2 µM [inhibitor, single point]
48 | Cc1cccc2cc3c(N)c(C#N)sc3nc12 | active: 12.6 µM
49 | COc1cccc(C2C3=C(N=c4s/c(=C\c5ccc(OCC(=O)O)cc5)c(=O)n42)c2ccccc2CC3)c1 (stereo not drawn) | active: 22.4 µM
50 | O=[N+]([O-])c1nn(-c2ccc(Cl)cc2)n(O)c1=NCc1ccccc1 | inconclusive: 10 µM [inhibitor, partial curve]
51 | CCn1c(=O)c([N+](=O)[O-])c(Cl)c2ccccc21 | inconclusive: 7.94 µM [inhibitor, partial curve]
52 | COc1ccc(-c2c(N)nnc3c2[nH]c2ccccc23)cc1OC | inconclusive: 10 µM [inhibitor, partial curve]
53 | COC(=O)c1ccc(N2C(=O)CC(Sc3n[nH]c(C)n3)C2=O)cc1 (stereo not drawn) | inconclusive: 28.2 µM [inhibitor, single point]
54 | COC(=O)c1cc(-c2ccccc2)sc1N | inconclusive: 12.6 µM [inhibitor, partial curve]
55 | CC(C)(C)C(=O)Nc1ccc2c(c1)OCCOCCOc1cc(NC(=O)C(C)(C)C)ccc1OCCOCCO2 | inactive
56 | COc1ccc(N/N=C(/N=Nc2nc(C)cc(=O)[nH]2)c2ccccc2)cc1 | active: 4.47 µM
57 | CCc1ccc(S(=O)(=O)c2nnn3c2nc(N(CC)Cc2ccccc2)c2cc(Cl)ccc23)cc1 | inactive
58 | CC1CCCN(c2nc3c(c(=O)[nH]c(=O)n3C)n2CCSc2nc3ccccc3o2)C1 (stereo not drawn) | inactive
59 | Cc1ccc(C2CC(=O)Nc3c2c(C)nn3-c2nc(C)cc(C)n2)c(C)c1 (stereo not drawn) | inactive
60 | COc1cc(CN(C(=O)COc2ccccc2)c2ccccn2)cc(OC)c1OC | inactive
61 | Cc1ccc(NC(=O)c2cc(NC(=O)C3CC=CCC3C(=O)O)ccc2N2CCOCC2)cc1Cl (stereo not drawn) | inconclusive: 31.6 µM [inhibitor, partial curve]
62 | CCC(C)OC(=O)/C(C#N)=C/c1ccc(-c2ccc(Br)cc2)o1 (stereo not drawn) | inactive
63 | COC(=O)c1ccc(C2N=C(c3cccs3)CC(c3ccccc3O)N2)cc1 (stereo not drawn) | inconclusive: 15.8 µM [inhibitor, partial curve]
64 | O=C1N=C(N2CCN(c3ccccc3)CC2)SC1Cc1ccccc1 (stereo not drawn) | inconclusive: 5.01 µM [inhibitor, partial curve]
65 | CCCCCCOC(=O)C(C#N)c1nc2ccccc2nc1N1CCN(CC)CC1 (stereo not drawn) | inconclusive: 14.1 µM [inhibitor, partial curve]
66 | COc1ccc(CCC(C)Nc2ccc(F)cc2)cc1 (stereo not drawn) | inconclusive: 15.8 µM [inhibitor, single point]
67 | Cc1cccc(N2CCn3c2nc2c3c(=O)n(CCCc3ccccc3)c(=O)n2C)c1 | inconclusive: 31.6 µM [inhibitor, single point]
68 | C[n+]1nc(Nc2cccc(F)c2)sc1-c1ccc(C(=O)O)cc1 | inconclusive: 39.8 µM [inhibitor, single point]

— PubChem BioAssay AID1460 (National Center for Advancing Translational Sciences (NCATS), 2008)
